Reference: publication PMC4336329 (PLoS ONE, 2015)
In all, about 310,000 compounds went through this assay and about 2,200 (0.71%) showed an effect of 50% or more. Effects have a minus sign here. This is one part of the list.

molecular target: human ether-à-go-go-related gene (hERG) potassium channel (human, UniProt Q12809); test: primary screen, population patch clamp on CHO cells stably expressing hERG
Sequence (Q12809 whole entry, looked up): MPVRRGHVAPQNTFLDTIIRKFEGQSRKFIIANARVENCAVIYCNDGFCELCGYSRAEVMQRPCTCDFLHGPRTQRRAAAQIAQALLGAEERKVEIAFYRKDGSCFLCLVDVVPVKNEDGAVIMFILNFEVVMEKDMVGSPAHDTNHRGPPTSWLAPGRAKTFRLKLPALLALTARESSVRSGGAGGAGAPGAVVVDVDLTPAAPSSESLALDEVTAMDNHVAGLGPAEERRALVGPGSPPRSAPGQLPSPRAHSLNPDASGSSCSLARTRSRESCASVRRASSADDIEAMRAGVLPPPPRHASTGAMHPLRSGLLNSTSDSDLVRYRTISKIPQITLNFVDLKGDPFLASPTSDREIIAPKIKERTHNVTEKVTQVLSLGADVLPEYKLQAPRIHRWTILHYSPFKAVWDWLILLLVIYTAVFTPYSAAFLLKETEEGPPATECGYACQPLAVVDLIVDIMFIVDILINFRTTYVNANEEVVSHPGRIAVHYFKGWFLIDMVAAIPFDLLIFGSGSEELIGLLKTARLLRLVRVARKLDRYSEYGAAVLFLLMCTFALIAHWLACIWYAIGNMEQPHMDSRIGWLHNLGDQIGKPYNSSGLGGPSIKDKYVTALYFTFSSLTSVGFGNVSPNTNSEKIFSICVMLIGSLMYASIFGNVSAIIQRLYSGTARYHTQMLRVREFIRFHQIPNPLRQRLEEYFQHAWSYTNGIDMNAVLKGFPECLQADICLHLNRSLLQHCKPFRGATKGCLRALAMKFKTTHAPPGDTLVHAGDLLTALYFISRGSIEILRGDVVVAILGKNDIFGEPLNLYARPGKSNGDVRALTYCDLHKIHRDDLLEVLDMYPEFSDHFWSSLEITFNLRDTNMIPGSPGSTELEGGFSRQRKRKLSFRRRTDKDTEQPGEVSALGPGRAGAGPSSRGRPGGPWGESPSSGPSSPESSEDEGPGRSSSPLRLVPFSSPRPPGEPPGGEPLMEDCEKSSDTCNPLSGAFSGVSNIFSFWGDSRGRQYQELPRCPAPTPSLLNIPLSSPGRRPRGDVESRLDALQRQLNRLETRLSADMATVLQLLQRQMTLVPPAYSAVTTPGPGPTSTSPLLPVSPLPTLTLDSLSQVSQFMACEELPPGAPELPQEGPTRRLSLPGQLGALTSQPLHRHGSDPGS

Row | Structure (SMILES) | hERG current change (%, negative = inhibition) at 1uM
1 | COc1cccc(CC(=S)N2CCOCC2)c1 | 2.51%
2 | C/C(=N\O)C1CC(CC(=O)O)C1(C)C (stereo not drawn) | 7.56%
3 | CC[C@@H]1[C@H]2CCCC(=O)N3CC[C@@H](C[C@@H]1Nc1ccccc1)[C@@H]23 | 7.12%
4 | CCOC(=O)Cn1nnnc1CN(Cc1ccccc1)Cc1cc2cc(CC)ccc2[nH]c1=O | 0.922%
5 | COc1ccc(-n2nc3c(c2NC(=O)C2CCCC2)CS(=O)C3)cc1 (stereo not drawn) | 4.73%
6 | O=C(OCC(=O)N1CCCC1)c1ccc(NS(=O)(=O)c2cccs2)cc1O | 11.4%
7 | O=C(NNC(=O)C1CCN(S(=O)(=O)c2cccc(Cl)c2)CC1)C1CC1 | 5.65%
8 | COc1ccc(-c2csc(NC(C)=O)n2)cc1OC | 8.54%
9 | Cn1c(SCC(=O)NCc2ccco2)nnc1-c1cccs1 | 8.99%
10 | Cc1c(S(=O)(=O)Nc2cc(Cl)ccc2Cl)c(=O)n(C)c(=O)n1C | 7.07%
11 | O=C(CSc1nc2c(sc3ccccc32)c(=O)n1CCO)NCC1CCCO1 (stereo not drawn) | -2.95%
12 | Cc1cccc(NNC(=S)Nc2c(C)cccc2C)c1 | 8.49%
13 | COc1ccc(C2NC(=O)NC(C)=C2C(C)=O)cc1 (stereo not drawn) | 11.4%
14 | CC1CN(Cc2nc3c(c(=O)n(C)c(=O)n3C)n2CCCc2ccccc2)CC(C)O1 (stereo not drawn) | -1.5%
15 | CCOP(=O)(OCC)C(NC(=O)c1cc([N+](=O)[O-])cc([N+](=O)[O-])c1)C(F)(F)F (stereo not drawn) | 8.16%
16 | CCC(C)(C)n1nnnc1C(c1ccccc1)N1CCN(C2CCCC2)CC1 (stereo not drawn) | 6.06%
17 | CCOC(=O)c1c(C)[nH]c(C)c1C(=O)CN1C(=O)NC2(CCCCCC2)C1=O | 11.4%
18 | CCOC(=O)CCCSc1nc(-c2ccc3c(c2)OCO3)cc(C(F)(F)F)c1C#N | 6.95%
19 | CN(C)C(=O)N1CCN(C(=O)c2ccccc2Sc2ccccc2C#N)CC1 | 1.19%

Row | Structure (SMILES) | hERG current change (%, negative = inhibition) at 1uM
20 | Cc1c(CC(=O)N2CCC(C(=O)O)CC2)c(=O)oc2cc3c(cc12)CCC1(CCCCC1)O3 | 3.15%
21 | Cc1ccc(C(=O)Cn2cncn2)cc1.Cl | 7.78%
22 | COc1ccc(Cl)cc1NC(=O)CN(C)S(=O)(=O)c1cccs1 | 8.11%
23 | O=C(c1ccco1)N1CCN(C2CC(=O)N(c3ccc(C(F)(F)F)cc3)C2=O)CC1 (stereo not drawn) | 5.64%
24 | CCCCCc1c(C)nc(Nc2nc(C)c3cc(OC)ccc3n2)[nH]c1=O | 19.7%
25 | CCc1cc(=O)oc2c(C)c(OCC(=O)NCC3CCC(C(=O)O)CC3)ccc12 (stereo not drawn) | -5.62%
26 | O=C(COC(=O)CCc1ccccc1)Nc1ccccc1OC(F)F | 9.96%
27 | CCCCCCn1c(N2CCCC2)nc2c1c(=O)n(C)c(=O)n2C | 8.32%
28 | O=c1[nH]c(=O)n(CCC2=CCCCC2)c(O)c1/C=N/Nc1cccc2ccccc12 | 7.35%
29 | CC(=O)NC12CC3CC(C1)CC(C(=O)Nc1nc4c(C)cccc4s1)(C3)C2 | 1.16%
30 | COc1ccc(CCNC(=O)COC(=O)Cc2cccc3ccccc23)cc1 | 10.5%
31 | CCC1(C)NC(=O)N(CC(=O)N2N=C(c3ccccc3)CC2c2ccc(OC)cc2)C1=O (stereo not drawn) | -0.959%
32 | S=C(NCc1ccco1)N/N=C/c1ccc(Cl)cc1 | 12.2%
33 | Cc1ccccc1-c1ccc(=O)n(CC(=O)Nc2ccc(S(=O)(=O)N(C)C)cc2)n1 | 13.4%
34 | O=C(CN1C(=O)c2cccc3cccc(c23)C1=O)NCCN1CCOCC1 | 2.96%
35 | O=C(Nc1nccs1)c1cccnc1 | 0.456%
36 | COc1ccc(S(=O)(=O)N2Cc3ccccc3CC2C(=O)O)cc1OC (stereo not drawn) | 7.81%
37 | O=C1Nc2ccccc2N=C(c2ccccc2)C1Br (stereo not drawn) | 13.4%
38 | Cn1c(=O)c2c(nc(N/N=C/c3c(O)n(C4CCCCC4)c(=S)[nH]c3=O)n2C)n(C)c1=O | 16.6%

Row | Structure (SMILES) | hERG current change (%, negative = inhibition) at 1uM
39 | Cc1csc(SC(C)C(=O)Nc2ccc(S(=O)(=O)N3CCCC3)cc2)n1 (stereo not drawn) | -2.86%
40 | Cc1cc(C)cc(NC(=O)c2cc(C)n(Cc3cccs3)c2C)c1 | 6.93%
41 | O=C(NCc1ccco1)c1cc(S(=O)(=O)N2CCCC2)ccc1Cl | 6.46%
42 | COc1c(C)cc(C(=O)C2CCCN(C(=O)c3ccoc3)C2)cc1C (stereo not drawn) | -6.91%
43 | NS(=O)(=O)c1ccc(NC(=O)CSc2nnc(-c3ccc(O)cc3)o2)cc1 | 19.1%
44 | Cn1cnnc1SCC(=O)Nc1ccc(N2CCOCC2)cc1 | 4.51%
45 | COc1cc(-c2nc(CN3CCCCC3CCNC(C)=O)c(C)o2)ccc1F (stereo not drawn) | -39.4%
46 | Oc1ccc(-c2cn3c(n2)SCC3)cc1 | 10.6%
47 | O=C1c2cnc3nc(SCc4ccc(Cl)cc4)nn3c2CC2c3ccccc3CCN12 (stereo not drawn) | -5.51%
48 | CC(C)COCC1CC2(CC(C)C(=O)CC2=O)C(=O)O1 (stereo not drawn) | -1.38%
49 | CC(=O)C1=C(O)C(=O)N(CCC(=O)O)C1c1cccc(F)c1 (stereo not drawn) | 15.7%
50 | Oc1ccccc1C(=S)N1CCN(C(=S)c2ccccc2O)CC1 | 11.8%
51 | CN1CCN(S(=O)(=O)c2ccc(N3CCN(S(=O)(=O)/C=C/c4ccccc4)CC3)nc2)CC1 | 9.61%
52 | c1ccc(CSc2nnc(-c3ccco3)n2Cc2ccccc2)cc1 | -6.43%
53 | CN(CCO)C(=O)c1c(NC(=O)c2ccccc2)sc2c1CCCC2 | 7.5%
54 | CN1CCN(C(=O)CN2C(=O)NC(C)(c3ccc4ccccc4c3)C2=O)CC1 (stereo not drawn) | 6.12%
55 | Cn1c(/C=C/c2ccccc2)nc2ccccc2c1=O | 12.2%
56 | CCCCn1c(=O)[nH]c2nc3cc(N)ccc3nc2c1=O | 7.25%
57 | O=C(N/N=C/c1ccc2c(c1)OCO2)c1ccc(COCC(F)(F)C(F)F)cc1 | 9.11%
